Experimental data from article PMC4336329 (PLoS ONE, 2015).
In all, about 310,000 compounds went through this assay and about 14,000 (4.5%) showed an effect of 50% or more. The effect is printed as a negative number. The list shows a part of the results.

Each compound was assayed against human ether-à-go-go-related gene (hERG) potassium channel (human, UniProt Q12809) (assay: primary screen, population patch clamp on CHO cells stably expressing hERG).
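Further: peak tail current of the secondary pulse compared with the same well before compound.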

human ether-à-go-go-related gene (hERG) potassium channel, sequence (Q12809 whole entry, looked up): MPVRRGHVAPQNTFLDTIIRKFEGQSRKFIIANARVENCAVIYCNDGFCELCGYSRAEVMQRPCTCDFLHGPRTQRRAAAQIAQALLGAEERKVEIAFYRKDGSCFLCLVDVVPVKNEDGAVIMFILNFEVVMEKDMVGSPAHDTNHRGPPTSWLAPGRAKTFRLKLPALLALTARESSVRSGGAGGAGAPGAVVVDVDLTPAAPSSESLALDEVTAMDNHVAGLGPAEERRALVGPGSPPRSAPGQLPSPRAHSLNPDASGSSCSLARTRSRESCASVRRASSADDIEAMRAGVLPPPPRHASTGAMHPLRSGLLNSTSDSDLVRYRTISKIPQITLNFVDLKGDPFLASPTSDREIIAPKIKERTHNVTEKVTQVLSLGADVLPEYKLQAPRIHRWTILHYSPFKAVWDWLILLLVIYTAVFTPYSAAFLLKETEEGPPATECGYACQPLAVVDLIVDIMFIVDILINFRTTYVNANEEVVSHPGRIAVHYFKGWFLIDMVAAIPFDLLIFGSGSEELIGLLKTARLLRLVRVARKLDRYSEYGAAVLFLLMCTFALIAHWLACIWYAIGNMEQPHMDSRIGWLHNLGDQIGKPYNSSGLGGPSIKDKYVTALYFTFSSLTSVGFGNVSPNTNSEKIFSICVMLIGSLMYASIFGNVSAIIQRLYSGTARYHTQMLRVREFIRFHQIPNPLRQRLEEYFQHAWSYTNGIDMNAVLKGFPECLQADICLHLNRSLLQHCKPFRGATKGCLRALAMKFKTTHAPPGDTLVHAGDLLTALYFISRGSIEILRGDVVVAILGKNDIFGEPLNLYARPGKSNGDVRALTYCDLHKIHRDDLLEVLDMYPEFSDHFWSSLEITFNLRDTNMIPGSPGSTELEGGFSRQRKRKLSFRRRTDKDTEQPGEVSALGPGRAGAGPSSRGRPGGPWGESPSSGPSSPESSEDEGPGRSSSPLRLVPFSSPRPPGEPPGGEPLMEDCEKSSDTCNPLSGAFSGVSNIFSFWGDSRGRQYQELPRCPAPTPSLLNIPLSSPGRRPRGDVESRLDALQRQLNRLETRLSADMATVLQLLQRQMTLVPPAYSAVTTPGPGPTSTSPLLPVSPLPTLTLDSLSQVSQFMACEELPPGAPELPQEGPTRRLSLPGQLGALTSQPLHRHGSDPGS

| Structure (SMILES) | hERG current change (%, negative = inhibition) at 10uM [%] |
| --- | --- |
| c1cc2c(cc1Cn1cnnn1)OCO2 | 8.76 |
| Cc1sc2nc(SCC(=O)Nc3ccccc3F)[nH]c(=O)c2c1C | 18.8 |
| CCN1CCN(Cc2ccc(C)cc2C)CC1 | 3.19 |
| CCCn1c(N2CCN(CC(=O)Nc3ccc4c(c3)OCCO4)CC2)nc2ccccc21.Cl | -60.4 |
| Cc1ccn2c(=O)c(NC(=O)c3ccc(Br)o3)c(C)nc2c1 | 8.18 |
| Cc1cc(NC(=O)Nc2ccc3c(ccn3C)c2)sn1 | 11.2 |
| COc1cccc(NC(=O)C2C3C=CC(O3)C2C(=O)NCc2cccnc2)c1 (centres unmarked) | -5.43 |
| COc1cc(/C=C/C(=O)OCC(=O)N2CCCC2)cc(OC)c1OC | 15.8 |
| COc1cccc(NC(=O)c2c(C)nn(-c3ccccc3)c2Cl)c1 | 11.9 |
| C/C=C(/C)C(=O)O[C@@H]1c2c(ccc3ccc(=O)oc23)O[C@@H]1C(C)(C)OC(=O)/C(C)=C\C | -0.936 |
| CC1(C)Cc2cccc(OCC(=O)N3CCN(c4ccccc4)CC3)c2O1 | -45.6 |
| COc1ccc(/C=N/NC(=O)c2cc[n+]([O-])cc2)cc1OC | 29.1 |
| O=C(N/N=C/c1ccc(Cl)cc1)c1sccc1OCc1ccc(F)cc1 | 16.7 |
| CCC1CCCCN1CCNC(=O)CCS(=O)(=O)c1ccc(Br)cc1 (centres unmarked) | -19.6 |
| CSc1ncccc1C(=O)Nc1cc(C)ccn1 | 6.19 |
| CC(CCc1ccccc1)NC(=O)[C@@H]1Cc2ccccc2CN1.Cl (some centres unmarked) | -32.3 |
| O=C(NCc1cccc(CNC(=O)Nc2cccc(O)c2)c1)Nc1cccc(O)c1 | 15.3 |
| c1ccc(Cn2c3ccccc3c3nnc(SCCN4CCCCC4)nc32)cc1 | -67.7 |
| Brc1ccc2nc(-c3c[nH]c4ccccc34)cn2c1 | 18 |
| Cc1cc(NC(=O)Nc2ccccc2[N+](=O)[O-])n(C)n1 | 16.7 |
| N#Cc1ccc(-c2ccc(F)cc2)nc1Sc1ccc(F)cc1 | -3.46 |
| O=C(CN1CCOCC1)N/N=C/c1ccccc1 | -14.4 |
| CCN(c1ccccc1)S(=O)(=O)c1cccc(C(=O)NCc2cccnc2)c1 | -8.07 |

| Structure (SMILES) | hERG current change (%, negative = inhibition) at 10uM [%] |
| --- | --- |
| CC(=O)N(C)c1cccc([N+](=O)[O-])c1 | 7.09 |
| CCC(C)[C@H]1CNC(=S)N1CCc1cc(C(F)(F)F)cc(C(F)(F)F)c1 (some centres unmarked) | 11.8 |
| CC(C)Sc1nc2ccccc2n1CC(=O)NCc1ccc2c(c1)OCO2 | -7.23 |
| CCOC(=O)N1CCN(C(=O)CN(C2CCCCC2)S(=O)(=O)c2ccc(Cl)cc2)CC1 | -47.8 |
| COc1cc(NC(=S)N2CCC(C(O)(c3ccccc3)c3ccccc3)CC2)cc(OC)c1 | -8.09 |
| Nc1nc(SCC(=O)N2CCOCC2)n[nH]1 | 13.7 |
| COc1ccc(CCNC(=O)C2CCN(Cc3nc(-c4ccccc4F)oc3C)CC2)cc1OC | -45.4 |
| CC(C)NC(=O)C1CCN(C2CCN(C(=O)c3scc4c3CCCC4)CC2)CC1 | -1.4 |
| Cc1ccc2c(c1)N(CC(=O)N1CCOCC1)C(=O)CO2 | 4.9 |
| COc1cc(/C=C2/C(=O)NN(c3ccc(F)cc3)C2=O)cc(Cl)c1O | 16.4 |
| O=C(CCCOc1ccc(Br)cc1)Nc1ccc(S(=O)(=O)N2CCOCC2)cc1 | 2.38 |
| Cc1ccc(C(=O)C(C)OC(=O)CNC(=O)c2ccc(Br)o2)cc1 (centres unmarked) | -44.6 |
| CC(NC(=O)c1ccncc1)c1ccc(Cl)cc1Cl (centres unmarked) | -9.73 |
| CCOc1c(Cl)cc(CNCCc2c[nH]c3ccccc23)cc1OC.Cl | -24.2 |
| Cc1cc(NC(=O)CSc2nc(-c3ccccc3Cl)nc3c2c(=O)n(C)c(=O)n3C)no1 | 9.62 |
| COC(=O)Cc1ccc(NC(=O)c2ccc3c(c2)C(=O)N(Cc2ccco2)C3=O)cc1 | -2.43 |
| CCN1CCN(S(=O)(=O)c2ccc3c(c2)OCCO3)CC1 | 10.7 |
| C[NH+](C)CCCN1c2ccccc2Sc2ccc(Cl)cc21.[Cl-] | -65.3 |
| O=C(Nc1ccc(N2CCN(Cc3ccccc3)CC2)cc1)c1ncn[nH]1 | -5.05 |
| Cc1ccc(OCC(=O)Nc2ccc(S(=O)(=O)Nc3ccccn3)cc2)cc1C | 24.4 |
| COC(CNC(=O)C1CCCN(S(=O)(=O)c2c(C)noc2/C=C/c2cccs2)C1)OC (centres unmarked) | -23 |
| CCCc1cc(=O)n2[nH]c(-c3cccc(Br)c3)cc2n1 | 4.16 |
| COc1ccccc1C(=O)Nc1ccc(OC(C)C(=O)N2CCOCC2)cc1 (centres unmarked) | 1.1 |

| Structure (SMILES) | hERG current change (%, negative = inhibition) at 10uM [%] |
| --- | --- |
| COc1cc(/C=N/NC(=O)c2ccncc2)ccc1OCC(=O)Nc1ccc(C)c(C)c1 | -10.7 |
| O=C(NN=C1CCCC1)c1cc(-c2ccc(F)cc2)nc2ccccc12 | 12.9 |
| Cc1cccc(N2CCN(CC(=O)Nc3ccccc3[N+](=O)[O-])CC2)c1C | -0.256 |
| CCn1c(SCC(=O)c2ccccc2)nnc1-c1ccoc1C | 2.98 |
| COc1ccc(Nc2nc3c(c(=O)n(C)c(=O)n3C)n2CCO)cc1 | 4.72 |
| CSc1nncc(-c2ccc(F)cc2)n1 | -4.26 |
| C/C(=N\NC(=O)Cc1cccn1C)c1cccs1 | 30.2 |
| O=C(Nc1cccc(Cl)c1)c1ccc2ncsc2c1 | -12.6 |
| COc1cccc(CNC(=O)CCCn2ccc3cc(S(=O)(=O)N4CCCC4)ccc32)c1 | -27.8 |
| CC(=O)c1sc(NC(=O)COc2c(C)cc(Cl)cc2C)nc1C | 33.3 |
| Cc1ccc(N=Cc2ccc(O)cc2O)cc1F | 20.6 |
| C=CCn1c(C)cc(C(=O)CN2C(=O)c3ccccc3C2=O)c1C | 6.81 |
| Cc1cc(C)c(S(=O)(=O)Nc2ccc(N(C)C)cc2)c(C)c1-n1cnnn1 | 11.2 |
| Cc1cc(=O)oc2cc(OCC(=O)NC(Cc3c[nH]c4ccc(O)cc34)C(=O)O)c(Cl)cc12 (centres unmarked) | -3.5 |
| CCNc1nc(NC(C)C)nc(N(C#N)CCOc2ccccc2)n1 | -26 |
| CC(=O)Nc1ccc(S(=O)(=O)NC(CC(=O)NCCC2=CCCCC2)C(C)C)cc1 (centres unmarked) | 5.52 |
| O=C(N/N=C/c1ccc[nH]1)c1ccccc1[N+](=O)[O-] | 19.9 |
| COC(=O)CSc1[nH]c2ccc(F)cc2c1[N+](=O)[O-] | 18.5 |
| COC(=O)c1ccc(CSc2nc3c(c(=O)n2-c2ccccc2)SCC3)o1 | -16.7 |
| Cc1ccc(-c2cc(C(F)F)nc(NCC3CCCO3)n2)cc1 (centres unmarked) | -12 |
| Cc1nc2c(-c3ccc(F)cc3)c(C)nn2c(N2CCOCC2)c1C | 6.11 |
| COc1ccc(N2C(=O)S[C@@H]3CS(=O)(=O)C[C@@H]32)cc1 | 3.8 |
| Cc1ccc(S(=O)(=O)NC2=NCN(C(C)C)CN2)cc1 | 14.5 |

| Structure (SMILES) | hERG current change (%, negative = inhibition) at 10uM [%] |
| --- | --- |
| NC(=O)c1ccc(N2CCCCC2)c(N2C(=O)C3CC=CCC3C2=O)c1 (centres unmarked) | 15.6 |
| O=C(O)COc1ccc(C(NC(=O)c2c(F)cccc2F)NC(=O)c2c(F)cccc2F)cc1 | 18.7 |
| CCN(c1ccccc1)S(=O)(=O)c1ccc(NC(=S)NC(=O)c2cccs2)cc1 | 10.6 |
| CC(C(=O)NC1=NCCS1)(C(F)(F)F)C(F)(F)F | -3.47 |
| O=C(NN1CCOCC1)c1ccc(Cl)s1 | -3.04 |
| N#Cc1cn(N2CCCCC2)c(=O)[nH]c1=O | 14 |
| Nc1nc(SCC(=O)N2CCN(c3ccc(F)cc3)CC2)n[nH]1 | 9.18 |
| CSCCC(NC(=O)c1ccccc1Cl)C(=O)N1CCC1 (centres unmarked) | -1.99 |
| O=C(COC(=O)c1sc2cc(Cl)ccc2c1Cl)Nc1ncc(Cl)cc1Cl | 15.9 |
| COc1ccc(Br)cc1S(=O)(=O)Nc1ccc(Cl)cn1 | -0.173 |
| COc1ccc(CCNC(=O)C2CCN(S(=O)(=O)c3ccc(OC)cc3)CC2)cc1 | -16.9 |
| C=CCNC(=S)N1CCN(Cc2ccc3c(c2)OCO3)CC1.O=C(O)C(=O)O | 3.16 |
| COc1ccc(N2CCN(C(=O)COC(=O)CCc3ccccc3OC)CC2)cc1 | -6.98 |
| O=C(Nc1ccc2nc(-c3cccnc3)[nH]c2c1)C12CC3CC(CC(C3)C1)C2 | -2.62 |
| Cc1ccc(Nc2cc(C)nc3c(C)ccc([N+](=O)[O-])c23)cc1 | 8.96 |
| CCOc1ccc(NC(=O)C2CC(=O)N=C(N)S2)cc1 (centres unmarked) | 16.1 |
| CC(=O)c1c(C)oc2ccc(N(C(C)=O)S(=O)(=O)c3ccc(F)cc3C)cc12 | 4.72 |
| COc1ccc(C(=O)NCCS(=O)(=O)NC(C)c2ccccc2)cc1 (centres unmarked) | -13.4 |
| CSc1ncccc1C(=O)OCC(=O)N1CCOCC1 | 8.99 |
| NC(=O)COC(=O)CNC(=O)c1cc(Cl)cc([N+](=O)[O-])c1 | 12.4 |
